In US4368267A, “Epoxidation of lower α-olefins” (priority 1980, dated 1983):

Key:
[1] = test system: Methylobacterium organophilum (CRL 26, NRRL B-11,222); experiment: Epoxidation/hydroxylation by washed cell suspensions; type: cell-based
Procedure: (§1) The pH of the nutrient medium was adjusted to 7.0 by the addition of acid or base and 50 ml aliquots of the nutrient medium was charged into a plurality of 300 ml shake flasks. The shake flasks were inoculated with an inoculating loop of cells from an agar plate containing homogeneous colonies of the microorganisms on the plate (the purity of the isolates were confirmed by microscopic examination). The isolates had been maintained on agar plates under an atmosphere of methane and air having a 1:1 v/v gas ratio which had been transferred every two weeks. The gaseous phase of the inoculated flasks was then replaced with a gas mixture comprised of methane and air having a ratio of 1:1 on a v/v basis. The inoculated flasks were sealed air tight and were incubated on a rotary shaker of orbital radius 2.5 cm at 250 rpm and at 30° C. for two days until the turbidity in the medium had developed.
(§2) The cells were harvested by centrifugation at 10,000 ×g at 4° C. for 30 minutes. The cell pellet was washed twice with a 0.15 M phosphate buffer at a pH of 7.0 (containing 0.002 M MgCl2). The washed cells were then suspended in a 0.15 M phosphate buffer at pH 7.0.
(§3) A 0.5 ml aliquot of each washed cell suspension (2 mg cells) was put into 10 ml vials at 4° C. which were sealed with a rubber cap. The gaseous phase of the vials was removed with vacuum and then was replaced with a gas mixture of alkene and oxygen at a 1:1 v/v ratio. It was then incubated at 30° C. on a rotary shaker at 300 rpm. Samples of product (3 μl) were withdrawn periodically with a microsyringe and the products were analyzed by gas chromatography (ionization flame detector column).
Several experiments were carried out using a plurality of compounds capable of generating the necessary reducing power (NADH2 or NADPH2) required for the epoxidation of alkenes or dienes. These experiments were carried out using cell suspensions of methane grown methylotrophs using the procedure as described in Example 1 except that a stimulator compound was added to the reaction medium.

[2] = test system: Methylosinus trichosporium OB3b (NRRL B-11,196); experiment: Methane hydroxylation and alkene epoxidation by washed cell suspensions; type: cell-based
Procedure: as §1, with “The shake flasks were inoculated with an inoculating loop of cells from an agar plate containing homogeneous colonies of the microorganisms on the plate (the purity of the isolates were confirmed by microscopic examination).” left out
as §2
as §3, with “A 0.5 ml aliquot of each washed cell suspension (2 mg cells) was put into 10 ml vials at 4° C. which were sealed with a rubber cap.” left out

[3] = test system: Methylococcus capsulatus strain MC; experiment: Stimulation of propylene epoxidation in cell suspensions; type: cell-based; details: Propylene + 5 mM stimulator compound
Procedure: as §1
(§4) The cells were harvested by centrifugation at 10,000 ×g at 4° C. for 30 minutes. The cell pellet was washed twice with a 0.15 M phosphate buffer at a pH of 7.0 (containing 0.002 M MgCl2). […]
(§5) A 0.5 ml aliquot of each washed cell suspension (2 mg cells) was put into 10 ml vials at 4° C. which were sealed with a rubber cap. […] Samples of product (3 μl) were withdrawn periodically with a microsyringe and the products were analyzed by gas chromatography (ionization flame detector column). […]

[4] = test system: Methylococcus capsulatus (CRL M1, NRRL B-11,219); experiment: Oxidation/epoxidation by washed cell suspensions; type: cell-based
[5] = test system: whole cell suspensions of methylotrophs (C1 -utilizing microbes)
[6] = test system: Methylobacter capsulatus Y (NRRL B-11,201); experiment: Methane hydroxylation and propylene epoxidation by washed cell suspensions; type: cell-based; details: Propylene + 5 mM stimulator compound
Procedure: as §1, §4, §5

[7] = target: T1, cell-free fractions of Methylococcus capsulatus (CRL M1, NRRL B-11,219) (Methylococcus capsulatus, UniProt G1UBD1+Q603F1+Q607G3); experiment: Epoxidation and hydroxylation activities in cell-free fractions; type: biochemical; details: Supernatant fraction + NADH (2.5 μmoles)
T1 sequence (G1UBD1 33-414): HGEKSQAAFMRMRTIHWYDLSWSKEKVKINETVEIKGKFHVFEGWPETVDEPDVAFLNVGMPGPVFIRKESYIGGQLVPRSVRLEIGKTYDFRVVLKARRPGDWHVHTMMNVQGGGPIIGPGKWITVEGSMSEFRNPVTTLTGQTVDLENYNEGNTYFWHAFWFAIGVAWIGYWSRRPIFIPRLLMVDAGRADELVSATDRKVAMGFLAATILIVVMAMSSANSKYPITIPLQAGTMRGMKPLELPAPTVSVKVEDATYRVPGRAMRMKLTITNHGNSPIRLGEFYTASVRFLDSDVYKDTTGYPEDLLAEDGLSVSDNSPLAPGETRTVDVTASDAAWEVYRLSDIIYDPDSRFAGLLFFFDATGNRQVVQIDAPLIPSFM
T1 sequence (Q607G3 1-247): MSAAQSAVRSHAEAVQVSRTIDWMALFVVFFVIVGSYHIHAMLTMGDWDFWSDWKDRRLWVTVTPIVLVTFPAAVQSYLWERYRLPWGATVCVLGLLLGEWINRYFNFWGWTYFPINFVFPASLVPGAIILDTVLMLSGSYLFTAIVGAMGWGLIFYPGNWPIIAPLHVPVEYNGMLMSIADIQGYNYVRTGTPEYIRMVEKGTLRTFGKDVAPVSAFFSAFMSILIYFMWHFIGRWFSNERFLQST
T1 sequence (Q603F1 1-260): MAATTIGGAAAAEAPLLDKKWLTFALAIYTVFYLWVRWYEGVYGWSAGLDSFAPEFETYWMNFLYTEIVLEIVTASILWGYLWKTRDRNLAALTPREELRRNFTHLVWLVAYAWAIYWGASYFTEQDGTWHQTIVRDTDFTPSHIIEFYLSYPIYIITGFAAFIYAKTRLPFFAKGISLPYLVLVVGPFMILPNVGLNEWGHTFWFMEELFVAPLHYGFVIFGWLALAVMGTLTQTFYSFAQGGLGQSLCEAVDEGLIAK
Procedure: Cells of methane-grown Methylococcus capsulatus (CRL M1, NRRL B-11,219) were obtained by the method of Example 1. […] However, when the cells were disrupted by passing twice through a French pressure cell (1000 Kg. pressure), both activities were found in the crude extract after 10,000×g. centrifugation. All of the activity in the crude extract was collected as a particulate fraction by further centrifugation of the crude extract at 40,000×g. for 90 min. at 4° C.

## CO [Methanol]
[1]; Propylene + 5 mM stimulator compound
  Rate of Product Formation (Propylene Oxide): 101 nmoles/hr/mg protein
[1]; metabolite 6 mM, 1 Hr, 1 mg protein, control 1.4
  Epoxidation Rate (Propylene Oxide): 1.8 μmoles/0.5 ml Assay
[1]; metabolite 6 mM, 2 Hr, control 2.2
  Epoxidation Rate (Propylene Oxide): 2.5 μmoles/0.5 ml Assay
[1]; metabolite 6 mM, 3 Hr, control 2.6
  Epoxidation Rate (Propylene Oxide): 3.2 μmoles/0.5 ml Assay
[1]; metabolite 48 mM, 1 Hr, control 1.4
  Epoxidation Rate (Propylene Oxide): 1.3 μmoles/0.5 ml Assay
[1]; metabolite 48 mM, 2 Hr, control 2.2
  Epoxidation Rate (Propylene Oxide): 2.5 μmoles/0.5 ml Assay
[1]; metabolite 48 mM, 3 Hr, control 2.6
  Epoxidation Rate (Propylene Oxide): 3.3 μmoles/0.5 ml Assay
[2]; metabolite 6 mM, 1 Hr, 1.1 mg protein, control 2.1
  Epoxidation Rate (Propylene Oxide): 2.8 μmoles/0.5 ml Assay
[2]; metabolite 6 mM, 2 Hr, control 3.2
  Epoxidation Rate (Propylene Oxide): 4.0 μmoles/0.5 ml Assay
[2]; metabolite 6 mM, 3 Hr, control 3.3
  Epoxidation Rate (Propylene Oxide): 5.1 μmoles/0.5 ml Assay
[2]; metabolite 48 mM, 1 Hr, control 2.1
  Epoxidation Rate (Propylene Oxide): 1.9 μmoles/0.5 ml Assay
[2]; metabolite 48 mM, 2 Hr, control 3.2
  Epoxidation Rate (Propylene Oxide): 3.8 μmoles/0.5 ml Assay
[2]; metabolite 48 mM, 3 Hr, control 3.3
  Epoxidation Rate (Propylene Oxide): 5.0 μmoles/0.5 ml Assay
[3]
  Rate of Product Formation (Propylene Oxide): 554 nmoles/hr/mg protein
[4]; metabolite 6 mM, 1 Hr, 0.74 mg protein, control 2.0
  Epoxidation Rate (Propylene Oxide): 2.7 μmoles/0.5 ml Assay
[4]; metabolite 6 mM, 2 Hr, control 3.8
  Epoxidation Rate (Propylene Oxide): 4.2 μmoles/0.5 ml Assay
[4]; metabolite 6 mM, 3 Hr, control 3.9
  Epoxidation Rate (Propylene Oxide): 5.2 μmoles/0.5 ml Assay
[4]; metabolite 48 mM, 1 Hr, control 2.0
  Epoxidation Rate (Propylene Oxide): 1.8 μmoles/0.5 ml Assay
[4]; metabolite 48 mM, 2 Hr, control 3.8
  Epoxidation Rate (Propylene Oxide): 4.2 μmoles/0.5 ml Assay
[4]; metabolite 48 mM, 3 Hr, control 3.9
  Epoxidation Rate (Propylene Oxide): 5.2 μmoles/0.5 ml Assay
[5]; 40 mM for formate and 48 mM for methanol
  Effect on epoxidation of propylene at higher concentrations: No inhibition was observed
[5]; higher methanol concentration (>24 μmoles), within the first hour of reaction
  Effect on propylene epoxidation or propane hydroxylation: Some inhibition were observed
[6]
  Rate of Product Formation (Propylene Oxide): 79 nmoles/hr/mg protein

## NC(=O)C1=CN([C@@H]2O[C@H](COP(=O)(O)OP(=O)(O)OC[C@H]3O[C@@H](n4cnc5c(N)ncnc54)[C@H](O)[C@@H]3O)[C@@H](O)[C@H]2O)C=CC1 [NADH, reduced nicotinamide adenine dinucleotide, reference compound]
[7]
  Oxidation Rate, Epoxidation of Propylene: 0 μmoles/30 min/assay
  Oxidation Rate, Hydroxylation of Methane: 0 μmoles/30 min/assay
